{
  "source": "PubChem BioAssay AID504333",
  "about": "(National Center for Advancing Translational Sciences (NCATS), 2011)",
  "note": "The campaign covered roughly 360,000 compounds. About 16,000 (4.4%) were called active. This list was built around the results that the source calls inconclusive (neither active nor inactive); the mix of calls is not that of the screen. Calls come from the whole dose curve; as a rule, active = well fitted inhibition curve with a large enough effect; inconclusive = small, poorly fitted or top-dose-only effect; inactive = no such curve, though single readings can be large or run the other way. Potencies of inconclusive entries are doubtful fits and often do not repeat. Potency is the fitted concentration of half-maximal effect; tags give direction and shape of the fitted curve.",
  "data": [
    {"target": "Bromodomain adjacent to zinc finger domain protein 2B (Homo sapiens) (UniProt Q9UIF8)", "sequence (Q9UIF8 whole entry, looked up, the tested form may be a part)": "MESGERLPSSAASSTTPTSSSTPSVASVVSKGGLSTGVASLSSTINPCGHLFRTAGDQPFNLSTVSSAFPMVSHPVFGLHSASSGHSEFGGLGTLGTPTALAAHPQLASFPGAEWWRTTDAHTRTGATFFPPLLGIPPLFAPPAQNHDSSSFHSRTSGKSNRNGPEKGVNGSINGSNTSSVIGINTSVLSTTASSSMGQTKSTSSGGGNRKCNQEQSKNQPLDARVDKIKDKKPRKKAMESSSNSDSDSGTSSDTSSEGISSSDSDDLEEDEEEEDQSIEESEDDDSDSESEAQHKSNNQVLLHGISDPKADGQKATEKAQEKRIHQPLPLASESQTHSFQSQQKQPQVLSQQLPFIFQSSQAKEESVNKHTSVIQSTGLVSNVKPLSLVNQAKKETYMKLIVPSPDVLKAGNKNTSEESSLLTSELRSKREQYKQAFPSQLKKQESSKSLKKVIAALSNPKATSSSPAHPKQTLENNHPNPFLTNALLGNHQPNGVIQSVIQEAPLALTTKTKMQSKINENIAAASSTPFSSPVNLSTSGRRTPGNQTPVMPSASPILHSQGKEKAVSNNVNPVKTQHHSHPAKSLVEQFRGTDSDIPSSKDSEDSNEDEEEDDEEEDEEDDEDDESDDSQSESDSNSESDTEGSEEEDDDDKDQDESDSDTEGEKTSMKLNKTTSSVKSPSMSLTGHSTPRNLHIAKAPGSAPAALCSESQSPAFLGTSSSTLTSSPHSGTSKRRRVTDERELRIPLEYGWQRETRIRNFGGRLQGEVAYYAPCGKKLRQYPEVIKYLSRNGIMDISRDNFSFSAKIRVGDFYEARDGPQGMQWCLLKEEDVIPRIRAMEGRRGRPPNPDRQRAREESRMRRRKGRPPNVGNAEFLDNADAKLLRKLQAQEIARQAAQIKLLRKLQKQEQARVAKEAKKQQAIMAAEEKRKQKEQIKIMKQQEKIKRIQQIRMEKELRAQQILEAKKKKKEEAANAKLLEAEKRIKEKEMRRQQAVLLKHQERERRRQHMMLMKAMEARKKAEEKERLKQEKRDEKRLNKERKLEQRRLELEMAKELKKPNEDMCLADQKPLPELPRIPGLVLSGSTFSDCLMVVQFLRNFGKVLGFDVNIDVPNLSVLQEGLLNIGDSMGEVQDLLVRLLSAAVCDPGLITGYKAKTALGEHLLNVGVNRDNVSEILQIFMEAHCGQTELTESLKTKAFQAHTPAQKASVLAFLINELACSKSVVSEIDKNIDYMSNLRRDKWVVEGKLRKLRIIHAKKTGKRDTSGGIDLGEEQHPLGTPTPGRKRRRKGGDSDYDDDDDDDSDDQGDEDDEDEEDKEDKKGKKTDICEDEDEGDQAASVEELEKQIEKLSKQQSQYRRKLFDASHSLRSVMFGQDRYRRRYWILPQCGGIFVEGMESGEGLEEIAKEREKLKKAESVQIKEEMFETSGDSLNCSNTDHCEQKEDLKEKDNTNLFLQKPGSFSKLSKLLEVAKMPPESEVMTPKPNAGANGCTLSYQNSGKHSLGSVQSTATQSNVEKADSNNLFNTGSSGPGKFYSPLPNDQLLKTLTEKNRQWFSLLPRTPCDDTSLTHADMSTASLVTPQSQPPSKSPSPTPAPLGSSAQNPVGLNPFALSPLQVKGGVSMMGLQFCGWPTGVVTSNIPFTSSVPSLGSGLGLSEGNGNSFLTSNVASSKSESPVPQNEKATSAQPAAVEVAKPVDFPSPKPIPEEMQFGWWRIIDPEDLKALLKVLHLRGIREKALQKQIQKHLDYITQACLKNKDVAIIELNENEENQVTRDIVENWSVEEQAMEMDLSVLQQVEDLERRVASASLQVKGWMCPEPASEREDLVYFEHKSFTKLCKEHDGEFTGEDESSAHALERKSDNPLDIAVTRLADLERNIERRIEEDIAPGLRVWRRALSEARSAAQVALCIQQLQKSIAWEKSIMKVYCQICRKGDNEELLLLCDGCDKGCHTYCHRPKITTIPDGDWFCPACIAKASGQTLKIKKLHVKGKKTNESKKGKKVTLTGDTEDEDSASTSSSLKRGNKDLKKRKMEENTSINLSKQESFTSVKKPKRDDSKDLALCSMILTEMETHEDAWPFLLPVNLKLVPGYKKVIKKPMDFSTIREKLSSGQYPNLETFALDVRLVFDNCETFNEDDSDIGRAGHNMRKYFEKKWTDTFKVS", "assay": "qHTS Assay for Inhibitors of BAZ2B; note: nearly all actives have a fitted effect of over 60% in size", "conditions": "AlphaScreen BAZ2B-H3K14Ac peptide displacement; series mostly up to 114 µM", "procedure,_shortened": "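Inhibition is scored as reduced AlphaScreen emission. The BAZ2B/b-H3(5-23)K14Ac complex (50 nM each) in PBS pH 7.4, 0.01% Tween-20 meets compound (up to 110 uM) for 30 min at RT before bead addition.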", "values": [
      {"smiles": "Cc1cc(C(=O)NP(=O)(N2CCOCC2)N2CCOCC2)c(C)n1-c1ccc(N(C)C)cc1", "Potency": "inconclusive: 50.1 µM [inhibitor, partial curve]"},
      {"smiles": "CCN(CC)c1ccc(NC(=S)NCC2CCCO2)cc1", "note": "(stereo not drawn)", "Potency": "active: 44.7 µM"},
      {"smiles": "CC1CCCN(C(=O)c2cccc(S(=O)(=O)N3CCCC3)c2)C1", "note": "(stereo not drawn)", "Potency": "inactive"},
      {"smiles": "Cc1ccc2[nH]c(=O)c(C(c3nnnn3CC3CCCO3)N3CCCc4ccccc43)cc2c1", "note": "(stereo not drawn)", "Potency": "inconclusive: 44.7 µM [inhibitor, partial curve]"},
      {"smiles": "CN(C)c1ccc(/C=N/NC(=O)C(=O)/C=C2\\NC3(CCCC3)Cc3ccccc32)cc1", "Potency": "inconclusive: 7.94 µM [inhibitor, full curve]"},
      {"smiles": "COc1cc(NC(=O)Nc2ccc(C)cc2)cc([N+](=O)[O-])c1", "Potency": "inconclusive: 89.1 µM [inhibitor, single point]"},
      {"smiles": "COc1ccccc1N1CCN(CCCCOc2ccc(F)cc2)CC1", "Potency": "inconclusive: 89.1 µM [inhibitor, single point]"},
      {"smiles": "Cc1ccc(Nc2ccc(C(F)(F)F)cc2[N+](=O)[O-])cc1", "Potency": "inconclusive: 5.62 µM [inhibitor, full curve]"},
      {"smiles": "O=C(Cc1ccc(F)cc1)NCc1ccc2c(c1)CCN2C(=O)c1ccc(F)cc1", "Potency": "inactive"},
      {"smiles": "OC(CNCCc1ccc(Cl)cc1)COc1ccc2ccccc2c1", "note": "(stereo not drawn)", "Potency": "inconclusive: 79.4 µM [inhibitor, single point]"},
      {"smiles": "O=C(Nc1ccc(S(=O)(=O)Nc2nccs2)cc1)c1nn(-c2ccc(F)cc2)ccc1=O", "Potency": "active: 25.1 µM"},
      {"smiles": "CCOc1ccc(C2CC(c3c(O)n(C4CCCCC4)c(=O)[nH]c3=O)=Nc3ccccc3S2)cc1", "note": "(stereo not drawn)", "Potency": "inconclusive: 79.4 µM [inhibitor, single point]"},
      {"smiles": "COc1ccccc1NC(=O)Nc1ccc(Cc2ccncc2)cc1", "Potency": "inconclusive: 56.2 µM [inhibitor, partial curve, poor fit]"},
      {"smiles": "O=C(Nc1sc2c(c1C(=O)NCc1cccnc1)CCCC2)c1cc(=O)c2ccccc2o1", "Potency": "inactive"},
      {"smiles": "COc1cccc(C2C(C(=O)c3sc(C)nc3C)=C(O)C(=O)N2CCN2CCOCC2)c1OC", "note": "(stereo not drawn)", "Potency": "inconclusive: 89.1 µM [inhibitor, single point]"},
      {"smiles": "O=C(NCCCCc1ccccc1)c1cc([N+](=O)[O-])cc([N+](=O)[O-])c1", "Potency": "inconclusive: 79.4 µM [inhibitor, single point]"},
      {"smiles": "CCCn1c2ccccc2c2cnn(CC(=O)N(CCCOC)Cc3ccco3)c(=O)c21", "Potency": "inactive"},
      {"smiles": "Cc1ccc2c(c1C)NC(=O)C21N2CCCC2C(C(=O)c2ccc3ccccc3c2)C12C(=O)Nc1ccccc12", "note": "(stereo not drawn)", "Potency": "inconclusive: 7.08 µM [inhibitor, partial curve, poor fit]"}
    ]}
  ]
}
